Assay results from publication PMC12136788.
Some of the results follow.

T1: UNK ZnF1-6 (called full-length) (human, UniProt Q9C0B0 30-357)
T1 sequence: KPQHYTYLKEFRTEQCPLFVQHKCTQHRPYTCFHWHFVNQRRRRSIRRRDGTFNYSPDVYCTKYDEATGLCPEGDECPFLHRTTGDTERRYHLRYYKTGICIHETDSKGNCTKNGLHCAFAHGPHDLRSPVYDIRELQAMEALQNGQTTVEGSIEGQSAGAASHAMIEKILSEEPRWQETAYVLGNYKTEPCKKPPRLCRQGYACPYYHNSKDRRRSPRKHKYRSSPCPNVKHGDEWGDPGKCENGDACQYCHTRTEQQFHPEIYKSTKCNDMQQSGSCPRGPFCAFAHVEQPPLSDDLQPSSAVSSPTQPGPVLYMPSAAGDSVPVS

B1: chr15:58597255:58597356:-|3pUTR|ENSG00000137845|unk|FALSE|unique (ssRNA)
RNA: GGGAGUUCUACAGUCCGACGAUCUGGAAAAGGAACCCAAUUUUCUUAUGAACAGAUAUUUUUAACUUAAUGGCACAAAGUCUUAGAAUAUUAUUAUGUGCCCCGUGUUCCCUGUUCUUCGUUGCUGCAUUUUCUUCACUUGCACAACAGAGGAUUGAGCAUCA
B2: chr1:202941098:202941199:-|3pUTR|ENSG00000159346|msi1_unk|FALSE|overlapping (ssRNA)
RNA: GGGAGUUCUACAGUCCGACGAUCCCUCCCUUACCCCCAUCCUUAACUUUGUAUCCUGGCUUAUAACAGGCCAUCCAUUUUUGUAGCACACUUUUCAAAAACAAUUAUAUACCCUGGUCCCAUCUUUCUAGGGCCUGGAUCUGCCAACAGAGGAUUGAGCAUCA
B3: chr7:138585310:138585366:+|3pUTR|ENSG00000122779|msi1_unk|FALSE|overlapping (ssRNA)
RNA: GGGAGUUCUACAGUCCGACGAUCCUCUUUAAGUUGAAAAGUAAAAAAUAUAUGUGGUUUGGAUGUGUGCUUUAAUUCAGCUUUAGAAAUUAAUACCACUACCCGUGAAUUAUAUGGCCUGACAAUAUGAAUUAGGUGUACUGUCAACAGAGGAUUGAGCAUCA
B4: chr11:70485313:70487720:-|CDS|ENSG00000162105|control|control|control (ssRNA)
RNA: GGGAGUUCUACAGUCCGACGAUCUGGGGCGACGUCACAGAGAUCAAAAGCCCGAUUCUCUCAGGCCCAAAGGCAAACGUUAUUAGUGAAUUGAACUCUAUCCUACAGCAAAUGAACCGAGAGAAAUUGGCAAAGCCGGGGGAACAACAGAGGAUUGAGCAUCA
B5: chr9:101390727:101390839:-|CDS|ENSG00000136897|unk|total|mutant (ssRNA)
RNA: GGGAGUUCUACAGUCCGACGAUCCAGAAAAGAGAAAGAGCCAGUGGUUGUUGAGACAGCCGAAGAGAAAAAGGAACCUAUCCCCGUGUGUCCACCUUUACGAAGCCGAGCAUACACACCACCUGAAGAUCUCCAGAGUCGUUUCAACAGAGGAUUGAGCAUCA
B6: chr2:96301550:96301651:-|CDS|ENSG00000144028|msi1|FALSE|unique (ssRNA)
RNA: GGGAGUUCUACAGUCCGACGAUCAAGGCGAAAGGAGAUUGACCUGCUGCUGGGUCAAACAGAUGAUACCAGAUACCAUGUGCUAGUGAACCUGGGCAAAAAGAUCACAGACUAUGGUGGAGAUAAGGAAAUCCAAAAUAUGGGCAACAGAGGAUUGAGCAUCA

The binders below were run against T1, UNK ZnF1-6 (called full-length) (assay: nsRBNS (natural sequence RNA bind-n-seq); RBNS binding buffer (assumed for nsRBNS): 25 mM Tris pH 7.5, 150 mM KCl, 3 mM MgCl2, 0.01% Triton X-100, 500 ug/ml BSA, 20 U/ml SUPERase-In, 4 C; UNK is unkempt and MSI1 is Musashi-1; names of the RNAs are library labels; protein concentration not given here; high values mean tight binding).

Binder | binding signal [enrichment R]
B1 | 3
B2 | 8.46
B3 | 1.61
B4 | 0.77
B5 | 0.544
B6 | 0.578
